In the supplement of paper PMC10126150:
Values marked as one replicate rest on one cluster of the flow cell; about a third of the high ones do not repeat.

System: ATP
Experiment: switch fluorescence ratio, 500 uM ATP over buffer (Cy3 cluster intensity, sum of 5 cycles each) (fold (ratio)); higher = stronger signal-on switching upon ATP binding; sequences stand for … in TCGTCGGCAGCGTCAGATGTGTATAAGAGACAGTTTTTTTTTTTTTTTTTTTTTTTTT…TC
Conditions: aptamer strand: ATP DNA aptamer (quencher-CACCTGGGGGAGTATTGCGGAGGAAGG + anchor), 100 nM annealed; ATP concentration: 500 uM; one replicate
Procedure, shortened: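 Cy3-labelled switching-strand clusters on a modified Illumina MiSeq flow-cell were annealed to 100 nM quencher-labelled ATP aptamer and imaged first in selection buffer, then after 15 min with 500 uM ATP at 22 °C. NaOH stripping and re-annealing separated each of five buffer/ATP cycles, and clusters outside 100-1000 RFU were excluded. The fluorescence ratio sums target-cycle Cy3 intensity over buffer-cycle Cy3 intensity per cluster and averages it per switch-domain sequence.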
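Note: ATP exposure 15 min at 22 °C before imaging.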

Sequence | switch fluorescence ratio
GCGGCCACGG | 1.03
GTAACCTAAT | 1.03
GGATTTGTTG | 1.04
AGCATATTTA | 0.993
TTATGTGTTC | 0.961
ATTATAGTTC | 1
AAGTGCATGT | 1.06
GTTCGAGGG | 0.964
GATCGCGGTT | 0.961
AGCGGGTGAG | 0.995
TTATGATTTT | 0.988
AATAGGGCAA | 1.04
GTAGCAAGTG | 1.52
AACGAATTGA | 1.01
TAAGGTTGAA | 0.957
GCTGACACAT | 1.06
AATAGACGTA | 1.03
CAGAGAGCAG | 1.14
ATCTGCTCCT | 1
TTCCCATGAA | 1.02
GGCGAGTGGG | 0.991
GATATAATTG | 1.02
TGAATTTTGC | 1.21

Sequence | switch fluorescence ratio
ATGATCATGC | 0.986
GAGTCCGGTA | 1.12
CGGCGGTGAC | 1.11
TCGCTCCGCC | 4.01
TGGTGGAGGA | 0.981
CGCATGGGGA | 1.05
GAAGTTGAAT | 0.975
CGGATCCGCT | 0.937
TCCACTGTTA | 1.09
ATCGTTTCTG | 0.949
TTTAGATGTT | 1.01
TTTAGAAAC | 0.988
GATTGTGAGA | 1.02
CCGGGTCCGA | 1.03
TTCCCGGTAC | 3.53
GCATGTGATG | 1.03
AACCATTTAT | 0.97
TCCAACGGAG | 0.976
TTGTAGGAAA | 0.971
TTTCACTGCT | 0.976
CTTTCTCGCC | 1.06
GTGCGGTCCG | 1.04
GACGTCTAAG | 0.992

Sequence | switch fluorescence ratio
CAATTGGGTA | 1.07
TTTTAGGATC | 0.982
GTAGCAGCTC | 2.19
CGCCCGGTA | 1.08
TTATATGTAA | 1.05
CCACATCGTC | 1.01
TCCTCGAAAA | 1.44
CCCCAGTATT | 1.17
GCCAGCTTGG | 0.977
CGAGGAAGAT | 1.11
TGCGTACTCT | 1.1
AAGCCTGCAG | 1.02
CACTTGAGAC | 1
GAGGGCTTCA | 1.05
AAATGTGGA | 1.02
CGTCCGCGGA | 2.02
GGCGCTGCCG | 1.03
AGGAGCTAGG | 0.997
GGATACATAG | 0.985
GCACATATCG | 1.05
TTCCCGTTCG | 0.972
TAAGAGACAC | 0.975
AATCCCGCTA | 1.86

Sequence | switch fluorescence ratio
GATCCTGGTG | 1.45
GATTCCTGGT | 1.04
TTGGAGTGAA | 1.03
CCAGTAGCT | 1.09
CCCATTGTTG | 1.01
AGAGGTCGGT | 1
TTCAACCTCT | 1.05
CCGATTCGAG | 1.12
AAAAGGCTTA | 1.02
AAGTCGCGGC | 0.982
CGCGCCCTCG | 1.03
TCAAATGGAG | 1.03
TCTGGTACCT | 1.08
AACTAATTCT | 0.95
GCAGTTGCGG | 1.02
TTCTCTGAGA | 0.978
CCAAGATGCG | 0.989
CTGACTCGCC | 2.55
GACCGGGGG | 1.12
GCTTCCCATG | 1.05
TTCACTAATC | 1.04
GGATCACGTC | 1.02
GTCCTGAGAA | 1.01

Sequence | switch fluorescence ratio
ACAGCGGTCC | 1.05
ACCTTGAGCG | 1.01
CTGGTTTTG | 1.05
ATAATACGTT | 1.04
CCATTCCTTT | 0.964
CGGTCTGGTT | 0.991
CCCTGGGAGC | 1.02
AGCCACTCTA | 1.02
TCCGTGTGCT | 1.05
CATGCTTACG | 0.999
AAAGTTATGG | 0.978
GAACGAGACT | 1.05
CGGCTGTTG | 1.02
ATTAGTCAGT | 1.02
AACTTTATTA | 1.02
TTCCTGCGGC | 1.51
TCATCTGTTA | 1.06
GCTGAATAG | 1.03
CGTTAGGAGC | 1.01
GTCATGTCGT | 1.01
CGAGAATGT | 0.963
AGGGTAGACG | 1.1
GATTTCGGCC | 1.14

Sequence | switch fluorescence ratio
GTAGTTGATA | 1.02
CACCGATGGG | 0.98
TGATCCACAG | 1.05
CGATTTGCTG | 1.05
GAGAGAGCAC | 1.01
TAGCTTTCAC | 1.05
TCGGGTCTTT | 1.01
GGGAACGGTT | 0.923
AACGTACCTT | 1.57
AGTATCATGG | 1.03
CCTACGGCG | 1.24
AAAATCCAGG | 1.72
GCTATGTACC | 1.13
GTACCATAGC | 1.08
ATCATCATCT | 1.02
AAAGGCACAG | 0.981
TATTATACG | 1.04
GATTCCGCGG | 1.17
GATGTTCCAT | 0.98
TTCGAGCATG | 1.13
GCGCGGGGG | 1
CACGATGGCA | 1.21
TAACTAATCC | 1.07

Sequence | switch fluorescence ratio
GGTGATGTA | 0.968
GGAGAACTTT | 0.995
CTCATACCTA | 1.03
CTATCCAATT | 1.02
CCCAGGGCCC | 0.999
GGTCTTCCTA | 0.971
TAGTAAAAAG | 0.987
TGAACTGTTG | 1.01
TAACTTCTGA | 1.07
CGTACATGGG | 1.04
GTGCAAGTTC | 1.18
CCTGGTTAGC | 1.02
GAGTGGCTGT | 0.978
AAGTCTGCGT | 0.976
AGCGTATGTT | 1.02
ACGTACAGCG | 1.37
GTGTGAGATA | 0.969
GCGGCACGTT | 0.987
TTTCTAAGCT | 1
